# According to article PMC12820563, “FoxP3 forms a head-to-head dimer in vivo and stabilizes its multimerization on adjacent microsatellites”:
# The list shows a part of the results.
# Target: T1, MBP-FoxP1dN (Mus musculus, UniProt P58462 326-579)
# T1 sequence: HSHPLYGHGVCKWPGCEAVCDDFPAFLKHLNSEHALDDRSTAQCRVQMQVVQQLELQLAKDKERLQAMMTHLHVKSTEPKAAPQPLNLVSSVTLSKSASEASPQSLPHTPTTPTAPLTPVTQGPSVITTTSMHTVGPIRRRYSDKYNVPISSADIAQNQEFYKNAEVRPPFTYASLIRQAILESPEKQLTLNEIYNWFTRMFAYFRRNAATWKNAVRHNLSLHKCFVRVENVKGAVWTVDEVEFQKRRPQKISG
# Experiment: PD-seq (MBP pull-down with sequencing); 20 mM Tris-HCl pH 7.5, 100 mM NaCl, 1.5 mM MgCl2, 0.4 uM protein, 0.1 uM dsDNA library, 30 min, room temperature, amylose pull-down; high values mean tight binding
# Conditions: protein: recombinant; tags: His6-MBP; chain copies: 2; dsDNA, one strand shown
# Procedure, shortened: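 Protein and DNA were mixed at 0.4 µM and 0.1 µM and held for 30 min at room temperature in Tris pH 7.5 buffer with NaCl and MgCl2; the protein was a His6-MBP-tagged, N-terminally truncated mouse FoxP3 or FoxP1 fragment from E. coli, and the DNA a Klenow-filled double-stranded degenerate library. Amylose resin captured the complexes, which were washed three times. Binding is read as reads-per-million enrichment of pull-down versus input after Illumina sequencing, with replicates pooled.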
row,Sequence,binding signal
1,GATGATTGTTCTCCCAGCTGATGAATTGGGGACTTCGAGTAAACAAATTTTCCTAATCTTTCTGTTCAAGCGCCATCTAC,0.803 RPM ratio (pull-down/input)
2,GATGATTGTTCTCCCAGCTGATGAATTACTCACCTCGAGTAAACAAATTTTCCTAATCTTTCTGTTCAAGCGCCATCTAC,0.973 RPM ratio (pull-down/input)
3,GATGATTGTTCTCCCAGCTGATGAATTAGCAGCGTCGAGTAAACAAATTTTCCTAATCTTTCTGTTCAAGCGCCATCTAC,0.9 RPM ratio (pull-down/input)
4,GATGATTGTTCTCCCAGCTGATGAATTAGGGCCTTCGAGTAAACAAATTTTCCTAATCTTTCTGTTCAAGCGCCATCTAC,0.859 RPM ratio (pull-down/input)
5,GATGATTGTTCTCCCAGCTGATGAATTACATGCATCGAGTAAACAAATTTTCCTAATCTTTCTGTTCAAGCGCCATCTAC,1.4 RPM ratio (pull-down/input)
6,GATGATTGTTCTCCCAGCTGATGAATTGTTTAACTCGAGTAAACAAATTTTCCTAATCTTTCTGTTCAAGCGCCATCTAC,1.29 RPM ratio (pull-down/input)
7,GATGATTGTTCTCCCAGCTGATGAATTCAAGGATTCGAGTAAACAAATTTTCCTAATCTTTCTGTTCAAGCGCCATCTAC,0.883 RPM ratio (pull-down/input)
8,GATGATTGTTCTCCCAGCTGATGAATTCTGAAGGTCGAGTAAACAAATTTTCCTAATCTTTCTGTTCAAGCGCCATCTAC,0.736 RPM ratio (pull-down/input)
9,GATGATTGTTCTCCCAGCTGATGAATTAGCCCGATCGAGTAAACAAATTTTCCTAATCTTTCTGTTCAAGCGCCATCTAC,0.777 RPM ratio (pull-down/input)
10,GATGATTGTTCTCCCAGCTGATGAATTTCAGTGGTCGAGTAAACAAATTTTCCTAATCTTTCTGTTCAAGCGCCATCTAC,0.767 RPM ratio (pull-down/input)
11,GATGATTGTTCTCCCAGCTGATGAATTTACTACCTCGAGTAAACAAATTTTCCTAATCTTTCTGTTCAAGCGCCATCTAC,1.25 RPM ratio (pull-down/input)
12,GATGATTGTTCTCCCAGCTGATGAATTTCTCACCTCGAGTAAACAAATTTTCCTAATCTTTCTGTTCAAGCGCCATCTAC,0.872 RPM ratio (pull-down/input)
13,GATGATTGTTCTCCCAGCTGATGAATTACCAAACTCGAGTAAACAAATTTTCCTAATCTTTCTGTTCAAGCGCCATCTAC,1.1 RPM ratio (pull-down/input)
14,GATGATTGTTCTCCCAGCTGATGAATTGAAGGCTTCGAGTAAACAAATTTTCCTAATCTTTCTGTTCAAGCGCCATCTAC,0.87 RPM ratio (pull-down/input)
15,GATGATTGTTCTCCCAGCTGATGAATTTTAAATATCGAGTAAACAAATTTTCCTAATCTTTCTGTTCAAGCGCCATCTAC,1.15 RPM ratio (pull-down/input)
16,GATGATTGTTCTCCCAGCTGATGAATTATTGCCATCGAGTAAACAAATTTTCCTAATCTTTCTGTTCAAGCGCCATCTAC,1.24 RPM ratio (pull-down/input)
17,GATGATTGTTCTCCCAGCTGATGAATTGCCTAGTTCGAGTAAACAAATTTTCCTAATCTTTCTGTTCAAGCGCCATCTAC,0.959 RPM ratio (pull-down/input)
18,GATGATTGTTCTCCCAGCTGATGAATTCGCCTGATCGAGTAAACAAATTTTCCTAATCTTTCTGTTCAAGCGCCATCTAC,0.834 RPM ratio (pull-down/input)
19,GATGATTGTTCTCCCAGCTGATGAATTTACCTAGTCGAGTAAACAAATTTTCCTAATCTTTCTGTTCAAGCGCCATCTAC,1.19 RPM ratio (pull-down/input)
20,GATGATTGTTCTCCCAGCTGATGAATTGGATTGCTCGAGTAAACAAATTTTCCTAATCTTTCTGTTCAAGCGCCATCTAC,0.916 RPM ratio (pull-down/input)
21,GATGATTGTTCTCCCAGCTGATGAATTCTTTCCTTCGAGTAAACAAATTTTCCTAATCTTTCTGTTCAAGCGCCATCTAC,0.851 RPM ratio (pull-down/input)

row,Sequence,binding signal
1,GATGATTGTTCTCCCAGCTGATGAATTCCAGTCGTCGAGTAAACAAATTTTCCTAATCTTTCTGTTCAAGCGCCATCTAC,0.795 RPM ratio (pull-down/input)
2,GATGATTGTTCTCCCAGCTGATGAATTCCGTGAATCGAGTAAACAAATTTTCCTAATCTTTCTGTTCAAGCGCCATCTAC,0.874 RPM ratio (pull-down/input)
3,GATGATTGTTCTCCCAGCTGATGAATTAGTTGTTTCGAGTAAACAAATTTTCCTAATCTTTCTGTTCAAGCGCCATCTAC,1.65 RPM ratio (pull-down/input)
4,GATGATTGTTCTCCCAGCTGATGAATTACTAGATTCGAGTAAACAAATTTTCCTAATCTTTCTGTTCAAGCGCCATCTAC,1.03 RPM ratio (pull-down/input)
5,GATGATTGTTCTCCCAGCTGATGAATTATTGAAATCGAGTAAACAAATTTTCCTAATCTTTCTGTTCAAGCGCCATCTAC,1.23 RPM ratio (pull-down/input)
6,GATGATTGTTCTCCCAGCTGATGAATTAGTCCCATCGAGTAAACAAATTTTCCTAATCTTTCTGTTCAAGCGCCATCTAC,0.983 RPM ratio (pull-down/input)
7,GATGATTGTTCTCCCAGCTGATGAATTCTTCCGTTCGAGTAAACAAATTTTCCTAATCTTTCTGTTCAAGCGCCATCTAC,0.866 RPM ratio (pull-down/input)
8,GATGATTGTTCTCCCAGCTGATGAATTATACCGATCGAGTAAACAAATTTTCCTAATCTTTCTGTTCAAGCGCCATCTAC,0.975 RPM ratio (pull-down/input)
9,GATGATTGTTCTCCCAGCTGATGAATTTTAGAGCTCGAGTAAACAAATTTTCCTAATCTTTCTGTTCAAGCGCCATCTAC,0.77 RPM ratio (pull-down/input)
10,GATGATTGTTCTCCCAGCTGATGAATTCACTCAATCGAGTAAACAAATTTTCCTAATCTTTCTGTTCAAGCGCCATCTAC,0.995 RPM ratio (pull-down/input)
11,GATGATTGTTCTCCCAGCTGATGAATTACAGAAATCGAGTAAACAAATTTTCCTAATCTTTCTGTTCAAGCGCCATCTAC,1.38 RPM ratio (pull-down/input)
12,GATGATTGTTCTCCCAGCTGATGAATTGGCTGCCTCGAGTAAACAAATTTTCCTAATCTTTCTGTTCAAGCGCCATCTAC,0.876 RPM ratio (pull-down/input)
13,GATGATTGTTCTCCCAGCTGATGAATTCTTTCAGTCGAGTAAACAAATTTTCCTAATCTTTCTGTTCAAGCGCCATCTAC,0.903 RPM ratio (pull-down/input)
14,GATGATTGTTCTCCCAGCTGATGAATTTCCGTCGTCGAGTAAACAAATTTTCCTAATCTTTCTGTTCAAGCGCCATCTAC,0.841 RPM ratio (pull-down/input)
15,GATGATTGTTCTCCCAGCTGATGAATTTATAATGTCGAGTAAACAAATTTTCCTAATCTTTCTGTTCAAGCGCCATCTAC,1.25 RPM ratio (pull-down/input)
16,GATGATTGTTCTCCCAGCTGATGAATTAAATTAATCGAGTAAACAAATTTTCCTAATCTTTCTGTTCAAGCGCCATCTAC,1.01 RPM ratio (pull-down/input)
17,GATGATTGTTCTCCCAGCTGATGAATTGATAGCTTCGAGTAAACAAATTTTCCTAATCTTTCTGTTCAAGCGCCATCTAC,0.923 RPM ratio (pull-down/input)
18,GATGATTGTTCTCCCAGCTGATGAATTTCCGCTATCGAGTAAACAAATTTTCCTAATCTTTCTGTTCAAGCGCCATCTAC,0.974 RPM ratio (pull-down/input)
19,GATGATTGTTCTCCCAGCTGATGAATTAGTCAACTCGAGTAAACAAATTTTCCTAATCTTTCTGTTCAAGCGCCATCTAC,1.17 RPM ratio (pull-down/input)
20,GATGATTGTTCTCCCAGCTGATGAATTTGAAAGTTCGAGTAAACAAATTTTCCTAATCTTTCTGTTCAAGCGCCATCTAC,0.892 RPM ratio (pull-down/input)
